Reference: PubChem BioAssay AID488969 (Vanderbilt High Throughput Screening Facility, 2010)
In all, about 110,000 compounds were measured (“z-score”: median about -0.1, highest 2% from about 2 on). This is one part of the list. Calls of active or inactive are those of the source.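 Rule for the calls: active = z-score in the third read window above 3 or below -3; inactive = the rest.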

molecular target: Metabotropic glutamate receptor 8 (Rattus norvegicus) (UniProt P70579); assay: mGluR8 Gi/Go-coupled signaling modulation – cell-based, rat, thallium flux, HTS, primary screen (AID 488969); conditions: HEK293 rat mGluR8, GIRK (G protein-gated inwardly rectifying potassium channel) thallium flux, FluoZin2; at 10 µM; stronger effect = higher value; submaximal glutamate (EC20) added with thallium
UniProt P70579, sequence (P70579 whole entry, looked up): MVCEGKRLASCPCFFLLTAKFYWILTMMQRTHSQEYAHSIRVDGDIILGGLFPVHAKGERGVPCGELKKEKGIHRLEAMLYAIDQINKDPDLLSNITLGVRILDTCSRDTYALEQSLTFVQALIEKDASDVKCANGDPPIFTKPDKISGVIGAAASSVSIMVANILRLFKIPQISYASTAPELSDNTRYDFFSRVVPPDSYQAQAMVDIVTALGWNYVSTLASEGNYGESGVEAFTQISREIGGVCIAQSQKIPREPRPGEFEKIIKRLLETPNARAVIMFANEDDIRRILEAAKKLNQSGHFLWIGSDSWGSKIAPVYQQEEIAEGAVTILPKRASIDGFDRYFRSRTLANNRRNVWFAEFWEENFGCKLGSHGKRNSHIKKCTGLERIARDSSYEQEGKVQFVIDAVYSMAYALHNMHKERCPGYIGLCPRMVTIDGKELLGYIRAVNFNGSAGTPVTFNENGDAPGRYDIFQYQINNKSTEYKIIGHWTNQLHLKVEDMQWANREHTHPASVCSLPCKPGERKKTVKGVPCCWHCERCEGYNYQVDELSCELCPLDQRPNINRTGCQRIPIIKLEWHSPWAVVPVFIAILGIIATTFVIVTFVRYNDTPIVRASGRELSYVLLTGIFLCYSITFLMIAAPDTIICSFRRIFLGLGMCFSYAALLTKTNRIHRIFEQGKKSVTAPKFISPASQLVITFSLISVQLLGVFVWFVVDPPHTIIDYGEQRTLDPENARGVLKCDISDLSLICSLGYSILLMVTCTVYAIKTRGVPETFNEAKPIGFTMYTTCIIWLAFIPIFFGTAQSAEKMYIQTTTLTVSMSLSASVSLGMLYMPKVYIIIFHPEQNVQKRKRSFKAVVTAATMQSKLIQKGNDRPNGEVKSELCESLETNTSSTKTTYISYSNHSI

Q: Cc1cc(=O)n2[nH]c(SCc3ccccc3)nc2n1 was tested. Which z-score did it give?
A: -0.411

Q: For COc1ccc(C/C(N)=N/O)cc1, which z-score is on record?
A: 0.09

Q: For Cc1ccccc1NS(=O)(=O)c1cc(C(=O)N2CCCC2)ccc1C, which z-score is on record?
A: 0.276

Q: With COc1ccc2c(C)c(C(=O)O)oc2c1 as the molecule, how does the z-score read?
A: -1.11

Q: Clc1ccc(-c2nc(-c3ccccn3)no2)cc1Cl was tested. Which z-score did it give?
A: -0.435

Q: How did the z-score turn out when Cc1cn(-c2ccc(Br)cc2)[nH]c1=O was run?
A: 0.263

Q: CC1CCCCC1N1CCN(C(=O)c2cccc(F)c2)CC1 (configuration not stated) was tested. Which z-score did it give?
A: -1.26

Q: For CC(C)N(C(=O)NC(=O)Nc1ccccn1)S(C)(=O)=O, which z-score is on record?
A: 0.0224

Q: For COc1ccccc1-c1nnc(SCc2nc3ccccc3[nH]2)n1C, which z-score is on record?
A: -0.212

Q: With C/C=C/c1ccc(OCCCCOc2c(OC)cccc2OC)c(OC)c1 as the molecule, how does the z-score read?
A: -0.379

Q: Which z-score does the source give for CC1=[N+]([O-])C(C)(C)C(C)N(O)C1=O (configuration not stated) here?
A: 0.305

Q: O=[N+]([O-])c1cccc(/C=C/c2nc3ccc([N+](=O)[O-])cc3[nH]2)c1 was tested. Which z-score did it give?
A: -0.342

Q: For CNC(=O)C(=O)NCCc1ccc(Cl)cc1, which z-score is on record?
A: -0.417

Q: With C=CCn1c(COc2ccccc2)nnc1SCC(=O)N/N=C/c1ccc(C)cc1 as the molecule, how does the z-score read?
A: -0.362

Q: How did the z-score turn out when c1ccc(-c2cc(-c3nn4c(-c5ccco5)nnc4s3)c3ccccc3n2)cc1 was run?
A: -0.873

Q: For CCOc1ccc(N(CC(=O)NCc2ccc(F)cc2)S(=O)(=O)c2c(C)noc2C)cc1, which z-score is on record?
A: -0.34

Q: Cc1c(Cl)cnc(NC(=O)CSc2nnc3ccccn23)c1Cl was tested. Which z-score did it give?
A: 0.0524

Q: CCOc1ccc2nc(N/C(N)=N/C(=S)Nc3ccc(C)c(C)c3)nc(C)c2c1 was tested. Which z-score did it give?
A: -0.22

Q: With CCCCOCCCNC(=O)/C=C/c1ccccc1Cl as the molecule, how does the z-score read?
A: -0.149

Q: With COc1ccc(/C(O)=C2/C(=O)C(=O)N(Cc3cccnc3)C2c2ccco2)cc1OC (configuration not stated) as the molecule, how does the z-score read?
A: -0.0878

Q: With COc1ccc(/C=N/NC(=O)C(C)n2nnc3ccccc32)cc1OC (configuration not stated) as the molecule, how does the z-score read?
A: -0.379

Q: Which z-score does the source give for CCOC(=O)c1[nH]c(C)c(C(=O)N(C)C)c1C here?
A: 0.00259

Q: For COC(=O)C1=C(C)NC(=O)/C1=C\c1cc(C)n(-c2cc(C)cc(C)c2)c1C, which z-score is on record?
A: 0.531

Q: O=C1c2ccsc2SCCN1Cc1c(Cl)cccc1Cl was tested. Which z-score did it give?
A: -0.329

Q: COC(=O)c1cc(C#N)c(Oc2ccccc2)nc1C was tested. Which z-score did it give?
A: 0.107

Q: With NC(=S)NNC(=O)c1ccccc1 as the molecule, how does the z-score read?
A: -0.143

Q: How did the z-score turn out when CN(CC(=O)NC1CCCCCCC1)S(=O)(=O)c1cccc2cccnc12 was run?
A: -0.0963

Q: With Cc1cc(=O)[nH]c(N/N=C/c2ccccn2)n1 as the molecule, how does the z-score read?
A: 0.0808

Q: For COc1ccc(-c2nc(C#N)c(N3CCc4ccccc4C3)o2)cc1OC, which z-score is on record?
A: -0.136

Q: O=C(CSc1nc2ccccc2[nH]1)Nc1ccc(F)cc1 was tested. Which z-score did it give?
A: -0.135

Q: How did the z-score turn out when O=C(NCC1CCCO1)Nc1cccc(Cl)c1 (configuration not stated) was run?
A: -0.0292

Q: How did the z-score turn out when CC(Sc1nncn1C)C(=O)Nc1ccccc1-c1ccccc1 (configuration not stated) was run?
A: -0.378

Q: COC(C(=O)Nc1ccc(F)cc1F)c1ccccc1 (configuration not stated) was tested. Which z-score did it give?
A: 0.152

Q: With S=C(NCc1ccccc1)NCc1cccc(CNC(=S)NCc2ccccc2)c1 as the molecule, how does the z-score read?
A: 2.84

Q: Which z-score does the source give for S=C(Nc1ccc(Cl)cc1Cl)Nc1ccccc1Oc1ccccc1 here?
A: active: 4.54

Q: How did the z-score turn out when CC1CC(C)CN(CCOCCSc2ccccc2)C1 (configuration not stated) was run?
A: 0.729

Q: Which z-score does the source give for COc1cc(OC)nc(Oc2ccccc2C(=O)Oc2ccc(C)cc2)n1 here?
A: -0.28

Q: Cc1ccc(/C=N/NC(=O)c2c[nH]c3ccccc23)o1 was tested. Which z-score did it give?
A: -0.943

Q: With COC1(OC)N=C(N)C2(C#N)C(c3cccc(Oc4ccccc4)c3)C12C#N (configuration not stated) as the molecule, how does the z-score read?
A: 0.201

Q: How did the z-score turn out when Cc1cc(Nc2ccccc2)c2c([N+](=O)[O-])ccc(C)c2n1 was run?
A: -0.521

Q: For Cc1ccccc1-c1nc(CN2CCC(C(=O)NCCCN3CCCC3)CC2)c(C)o1, which z-score is on record?
A: 2.76

Q: O=C(COC(=O)CNC(=O)c1ccc(Cl)cc1)Nc1ccc2c(c1)OCCO2 was tested. Which z-score did it give?
A: -0.149

Q: How did the z-score turn out when COCc1nnc(NC(=O)CSCc2ccccc2)s1 was run?
A: 1.07

Q: Which z-score does the source give for COC(=O)c1cc(NS(=O)(=O)c2ccc(N3CCCCCC3)c([N+](=O)[O-])c2)cc(C(=O)OC)c1 here?
A: 0.0291

Q: How did the z-score turn out when COc1ccc(OCC(=O)NC(=S)Nc2ccc(N3CCOCC3)c(Cl)c2)cc1 was run?
A: 2.19

Q: With FC(F)(F)c1cc(-c2ccccc2)nc(N2CCCCCC2)n1 as the molecule, how does the z-score read?
A: 0.105

Q: How did the z-score turn out when CCOC(=O)N1CCN(C(=O)CN(Cc2ccc(Cl)cc2)S(=O)(=O)c2ccccc2)CC1 was run?
A: -0.438

Q: With O=C(NCC1CCCO1)C1CCN(c2ccc(S(=O)(=O)N3CCCC3)cc2)CC1 (configuration not stated) as the molecule, how does the z-score read?
A: 0.205

Q: CCC(C)NC(=O)CSC1=Nc2ccccc2C2=NC(c3ccccc3)C(=O)N12 (configuration not stated) was tested. Which z-score did it give?
A: -0.314

Q: How did the z-score turn out when CCCc1[nH]nc2c1C(/C(C)=C/c1ccccc1)C(C#N)=C(N)O2 (configuration not stated) was run?
A: -0.344

Q: O=C(O)c1ccccc1S(=O)(=O)NCC(O)COc1ccc(Br)cc1 (configuration not stated) was tested. Which z-score did it give?
A: -0.391

Q: Which z-score does the source give for O=C(CCn1c(=O)sc2ccccc21)NCc1cccs1 here?
A: 0.558

Q: With O=C(CSc1n[nH]c(-c2ccco2)n1)Nc1sc2c(c1C(=O)Nc1ccccc1)CCCC2 as the molecule, how does the z-score read?
A: -0.294

Q: For CCCn1nnnc1SCC(=O)Nc1cccc(NC(=O)c2ccco2)c1, which z-score is on record?
A: -0.0883

Q: For O=C(OCc1nnc(-c2ccccc2)o1)c1cc(S(=O)(=O)N2CCOCC2)c(Cl)cc1Cl, which z-score is on record?
A: -1.28

Q: With CCn1ncc(CN2CCN(C(=O)Nc3ccccc3C(=O)OC)CC2)c1C as the molecule, how does the z-score read?
A: -0.437

Q: How did the z-score turn out when COC(=O)c1c(C#N)c(N)nc2c1CCC2 was run?
A: -0.0826

Q: For Cc1ccccc1N(CC(=O)N/N=C/c1ccc(N(C)C)cc1)C(=O)c1ccccc1, which z-score is on record?
A: -0.39

Q: How did the z-score turn out when Nc1ccc(OCc2ccccc2)cc1 was run?
A: -0.0146

Q: For CCCC(C(=O)Nc1nccs1)c1ccccc1 (configuration not stated), which z-score is on record?
A: -0.281

Q: How did the z-score turn out when CC(C)(C)c1ccc(OCC(O)CS(=O)(=O)c2ccccn2)cc1 (configuration not stated) was run?
A: -0.438

Q: For CC1CCCCN1CCCNC(=O)c1ccc2c(=O)n(CCc3ccccc3)c(=O)[nH]c2c1 (configuration not stated), which z-score is on record?
A: 2.93

Q: For CCOC(=O)c1c(/N=C/N(C)C)sc2c1CCC2, which z-score is on record?
A: -0.178

Q: Cc1ccc(C(C(=O)NC(C)(C)C)N(Cc2ccco2)C(=O)Cn2nnc(-c3cccs3)n2)cc1 (configuration not stated) was tested. Which z-score did it give?
A: -0.532

Q: For CC(C)c1ccc(NC(=O)COc2nncc3ccccc23)cc1, which z-score is on record?
A: -0.102

Q: O=C1CC(C(=O)Nc2ccc(C(=O)O)cc2)C(c2ccccc2)O1 (configuration not stated) was tested. Which z-score did it give?
A: -0.202

Q: For CCOC(=O)c1c(NC(=O)CC2SC(=NC)N(C)C2=O)sc(C)c1C (configuration not stated), which z-score is on record?
A: -0.326

Q: Which z-score does the source give for Cc1ccc2nc(NC(=O)COC(=O)c3ccco3)sc2c1 here?
A: 0.445

Q: O=C(CN1C(=O)S/C(=C\c2ccc(Cl)cc2)C1=O)NNC(=O)c1ccccc1O was tested. Which z-score did it give?
A: -0.204

Q: How did the z-score turn out when O=C(COc1ccccc1F)NC1CC1 was run?
A: 0.105

Q: For CC1CN(c2nc3c(c(=O)n(Cc4ccc(Cl)cc4)c(=O)n3C)n2C)CC(C)O1 (configuration not stated), which z-score is on record?
A: -0.458

Q: Which z-score does the source give for O=C(CCC(=O)OCC(=O)c1ccc(F)cc1)NC1CCCCC1 here?
A: -0.239
